{"source": "PubChem BioAssay AID686979", "about": "(National Center for Advancing Translational Sciences (NCATS), 2013)", "note": "About 50,000 (12%) of roughly 420,000 compounds were called active. The shares of active, inactive and inconclusive entries below differ from those in the screen. The call rests on the fitted dose curve; in most records, active means well fitted inhibition curve with a large enough effect; inconclusive means small, poorly fitted or top-dose-only effect; inactive means flat fitted curve, though single readings scatter. No potency is given beside an inconclusive call; the fits are too rough. Potency means the concentration at half of the fitted maximal effect; tags describe the fitted curve by direction and shape.", "data": [{"assay": "qHTS for Inhibitors of human tyrosyl-DNA phosphodiesterase 1 (TDP1): qHTS in cells in presence of CPT; further: nearly all actives have a fitted effect of over 55% in size", "conditions": "chicken DT40 Tdp1-/-;hTDP1 cells + 20 nM CPT, ATP luminescence, 48 h; series mostly up to 46.2 µM", "procedure,_shortened": "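Cell growth measured by CellTiter-Glo luminescence after a minimum 48 h, 37 C compound exposure with 20 nM CPT in Tdp1-knockout DT40 cells stably expressing hTDP1, seeded 400/well; qHTS titration format.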", "values": [{"molecule": "C/C(CCc1ccc2c(c1)OCO2)=N\\NC(=S)NC(C)C", "Potency": "active: 18.4 µM"}, {"molecule": "Cc1cc(/C=C2\\SC(=O)N(C)C2=O)c(C)n1-c1ccc(S(N)(=O)=O)cc1", "Potency": "active: 18.4 µM"}, {"molecule": "CCCn1c(O)c(N=NC(=O)CNC(=O)c2ccncc2)c2ccccc21", "Potency": "inactive"}, {"molecule": "O=C(c1cc2cc([N+](=O)[O-])ccc2oc1=O)N1CCN(c2ncccn2)CC1", "Potency": "inconclusive [inhibitor, single point]"}, {"molecule": "CC(C)OCC1CC(CC(=O)Nc2ccc([N+](=O)[O-])cc2)C(=O)O1", "note": "(configuration not stated)", "Potency": "inactive"}, {"molecule": "COc1ccccc1-c1nc2cc(C(=O)NC[C@H]3CCc4ccccc4O3)cc(NC(C)=O)c2n1C", "Potency": "inactive"}, {"molecule": "O=C(Cn1nnc2sc3c(c2c1=O)CCCC3)Nc1ccc(F)c(Cl)c1", "Potency": "inconclusive [inhibitor, single point]"}, {"molecule": "Cc1[nH]nc2nc(SCC(=O)NCC3CCCO3)n(-c3ccc(Br)cc3)c(=N)c12", "note": "(configuration not stated)", "Potency": "active: 14.6 µM"}, {"molecule": "O=C(c1ccc(S(=O)(=O)N2CCCCCC2)cc1)N(c1ccccn1)C1CCCCC1", "Potency": "inconclusive [inhibitor, single point]"}, {"molecule": "CC(C)(C)C(=O)Nc1sc(-c2ccccc2)cc1C(=O)O", "Potency": "inconclusive [inhibitor, full curve]"}, {"molecule": "Cc1noc(C)c1CC(=O)NCC1Cc2cc(-c3cccc(OC(F)(F)F)c3)ccc2O1", "note": "(configuration not stated)", "Potency": "inconclusive [inhibitor, single point]"}, {"molecule": "COc1cc(OC)c(/C=C/c2ccc3ccccc3n2)c(OC)c1", "Potency": "active: 0.1 µM"}, {"molecule": "O=C(NCc1ccco1)C1(S(=O)(=O)c2ccc(Cl)cc2)CC1", "Potency": "inactive"}, {"molecule": "O=C(CCl)N1c2ccccc2Sc2c1ccc1ccccc21", "Potency": "active: 3.66 µM"}, {"molecule": "CCc1nn2c(N3CCOCC3)cc(C)nc2c1-c1ccc(F)cc1", "Potency": "inconclusive [inhibitor, partial curve]"}, {"molecule": "Cn1c(-c2sc3ccccc3c2Cl)n[nH]c1=S", "Potency": "inactive"}, {"molecule": "Cc1nn(-c2ccccc2)c(C)c1C(=O)OCc1ccc(C#N)cc1", "Potency": "inconclusive [inhibitor, single point]"}, {"molecule": "CCC(C(=O)NC1CCCC1)N(C(=O)Cn1nnc(-c2ccc(C)cc2)n1)C1CCCC1", "note": "(configuration not stated)", "Potency": "active: 25.9 µM"}, {"molecule": "COc1ccc(OC)c(/C=C/C(=O)c2ccc3c(c2)OCCO3)c1", "Potency": "inconclusive [inhibitor, single point]"}, {"molecule": "COc1cccc(NC(CNS(=O)(=O)c2ccc(C)cc2)c2ccccc2)c1", "note": "(configuration not stated)", "Potency": "inconclusive [inhibitor, single point]"}, {"molecule": "O=C(COc1ccc2c3c(c(=O)oc2c1)CCCC3)N1CCN(c2ccccc2)CC1", "Potency": "inconclusive [inhibitor, single point]"}, {"molecule": "COc1ccc(OC)c(NC(=O)C2(C)CCN2C(=O)Cc2ccccc2)c1", "note": "(configuration not stated)", "Potency": "inconclusive [inhibitor, single point]"}, {"molecule": "S=C(NCC1CCCCC1)Nc1ccc(Oc2ccccc2)cc1", "Potency": "inconclusive [inhibitor, single point]"}, {"molecule": "CN1C(=S)SC(C)(NO)C1(C)C", "note": "(configuration not stated)", "Potency": "inactive"}, {"molecule": "O=C(Nc1cc(Cl)cc(Cl)c1)C1CCC(=O)N1Cc1ccccc1Cl", "note": "(configuration not stated)", "Potency": "active: 23.1 µM"}, {"molecule": "O=C(CSc1ccc2ccccc2c1)Nc1ccncc1", "Potency": "inconclusive [inhibitor, partial curve]"}, {"molecule": "O=C(CSc1ccc(Cl)cc1)Nc1cccc(-c2nc3ccccc3[nH]2)c1", "Potency": "active: 9.2 µM"}, {"molecule": "O=C1/C(=C/Nc2ccc3c(c2)OCO3)CCc2ccccc21", "Potency": "active: 25.9 µM"}, {"molecule": "COc1ccc(CN(C)C(=O)c2cccc(Oc3ccccc3)c2)c(OC)c1OC", "Potency": "inconclusive [inhibitor, single point]"}, {"molecule": "COc1ccc(-c2csc3ncnc(N4CCN(S(=O)(=O)c5ccccc5C#N)CC4)c23)cc1", "Potency": "inconclusive [inhibitor, single point]"}, {"molecule": "O=C1c2ccccc2C2(c3cc(C(F)(F)F)cc(C(F)(F)F)c3)NCCN12", "note": "(configuration not stated)", "Potency": "inconclusive [inhibitor, single point]"}, {"molecule": "Oc1ccc(-c2csc(-c3cccnc3)n2)cc1O", "Potency": "active: 18.4 µM"}, {"molecule": "Cc1csc(SCC(=O)Nc2ccc(C)c(S(=O)(=O)N(C)C)c2)n1", "Potency": "inactive"}, {"molecule": "O=C(NCCN1CCC(n2c(=O)[nH]c3ccccc32)CC1)c1ccc(F)cc1Cl", "Potency": "inconclusive [inhibitor, single point]"}, {"molecule": "COc1ccccc1N(CC(=O)NCCSCc1ccc(Cl)cc1)S(C)(=O)=O", "Potency": "active: 20.6 µM"}, {"molecule": "CCCCCCn1c(=O)n2n(c1=O)[C@@H]1CN(S(=O)(=O)c3ccc(C)cc3)C[C@]1(O)[C@@H](OC(=O)NCc1ccc(OC)c(OC)c1)C2", "Potency": "inconclusive [inhibitor, single point]"}, {"molecule": "CCC(Sc1nc2ccsc2c(=O)n1Cc1ccc(C(=O)O)cc1)C(=O)Nc1cc(Cl)ccc1C", "note": "(configuration not stated)", "Potency": "inconclusive [inhibitor, single point]"}, {"molecule": "Cc1ccc(/C=N/NC(=O)c2cccs2)s1", "Potency": "inactive"}, {"molecule": "COc1ccc(-c2cc(C(=O)N3CC4(C)CC3CC(C)(C)C4)no2)cc1OC", "note": "(configuration not stated)", "Potency": "inconclusive [inhibitor, single point]"}, {"molecule": "Cc1ncc(CO)c2c1Oc1nc(-c3ccccc3)nc(SCC(=O)Nc3cccc(O)c3)c1C2", "Potency": "inconclusive [inhibitor, single point]"}, {"molecule": "CCCS(=O)(=O)NCCc1csc2nc(-c3ccc(OC)cc3)nn12", "Potency": "inconclusive [inhibitor, single point]"}, {"molecule": "Cc1cc(-c2ccc(C)c(S(=O)(=O)NCc3ccc(Cl)cc3)c2)on1", "Potency": "inactive"}, {"molecule": "N#Cc1ccccc1NC(=O)CSc1nnc(-c2ccccc2)n1-c1ccccc1", "Potency": "active: 23.1 µM"}, {"molecule": "CCN(CC)S(=O)(=O)c1ccc(S(=O)(=O)Nc2ccc3c(c2)oc2ccccc23)cc1", "Potency": "inconclusive [inhibitor, single point]"}, {"molecule": "CCOc1c(Cl)cc(CNCC(C)C)cc1OC", "Potency": "inactive"}, {"molecule": "Cn1c(CCN2CCCCC2)nc2cc(NC(=O)COc3ccc([N+](=O)[O-])cc3)ccc21", "Potency": "inactive"}, {"molecule": "CCOC(=O)C1=CC[C@@H](c2ccccc2)N(S(=O)(=O)c2ccc(C)cc2)[C@H]1C", "Potency": "inconclusive [inhibitor, single point]"}, {"molecule": "C=CCNc1cnn(-c2ccc(C)cc2)c(=O)c1Sc1ccc(C)cc1", "Potency": "inconclusive [inhibitor, single point]"}, {"molecule": "O=C(CCNc1ccc(Cl)c(C(F)(F)F)c1)c1ccco1", "Potency": "active: 7.31 µM"}, {"molecule": "CCc1nn(CCCC(=O)NC2CCCCC2C)c(=O)c2cc3occc3n12", "note": "(configuration not stated)", "Potency": "inconclusive [inhibitor, single point]"}, {"molecule": "O=C(c1cccc(NS(=O)(=O)c2ccc(Br)cc2)c1)N1CCN(c2ccccc2O)CC1", "Potency": "inactive"}, {"molecule": "COCCNC(=O)C[C@H]1C[C@H]2c3cc(NS(=O)(=O)c4ccc(F)cc4)ccc3O[C@H]2[C@H](CO)O1", "Potency": "inconclusive [inhibitor, single point]"}, {"molecule": "Cn1c(=O)n(C)c2cc(N3CCOCC3)c(NC(=O)c3ccc(F)cc3)cc21", "Potency": "inactive"}, {"molecule": "CCCCOc1cccc(C(=O)Nc2cccc3ccc(C)nc23)c1", "Potency": "inconclusive [inhibitor, single point]"}, {"molecule": "O=[N+]([O-])c1cccc(CN2[C@@H](Cc3ccccc3)COCCS2(=O)=O)c1", "Potency": "inconclusive [inhibitor, partial curve]"}, {"molecule": "CC1(C)[C@H]2CC[C@]1(C)[C@H](O)C2", "Potency": "inactive"}, {"molecule": "COc1c2ccccc2nn1C(C)C", "Potency": "inactive"}, {"molecule": "Cc1sc(NC(=O)c2ccco2)c(C(c2ccc(F)cc2)N2CCN(C)CC2)c1C", "note": "(configuration not stated)", "Potency": "inconclusive [inhibitor, single point]"}, {"molecule": "CC1=NNC(=O)C1CC(=O)N/N=C/c1cccs1", "note": "(configuration not stated)", "Potency": "inactive"}, {"molecule": "CC[C@@H](NCCCn1ccc(NC(=O)OCc2ccccc2)nc1=O)c1ccccc1", "Potency": "inconclusive [inhibitor, single point]"}, {"molecule": "Cc1cc(=O)[nH]c(-n2nc(C)cc2C)n1", "Potency": "active: 23.1 µM"}, {"molecule": "CCc1cccc(CC)c1NC(=O)CO/N=C(\\C)c1cccs1", "Potency": "inconclusive [inhibitor, single point]"}, {"molecule": "Cc1ccccc1OCC(=O)NNC(=O)Cn1[nH]c(=O)c2ccccc2c1=O", "Potency": "active: 8.2 µM"}, {"molecule": "O=C(CN1C(=O)C2C3C=CC(C4CC34)C2C1=O)OCC(=O)c1ccccc1", "note": "(configuration not stated)", "Potency": "inactive"}, {"molecule": "CCOC(=O)CNC(=O)Cn1cnc2c(nnn2-c2cccc(Cl)c2)c1=O", "Potency": "inactive"}, {"molecule": "CN(Cc1ccco1)C(=O)c1cc(NC(=O)C2CCC2)c2c(c1)nc(-c1ccncc1)n2C", "Potency": "inconclusive [inhibitor, single point]"}, {"molecule": "O=C(Nc1ccccc1)c1ccc2c(c1)CCN2S(=O)(=O)c1ccccc1", "Potency": "inconclusive [inhibitor, single point]"}, {"molecule": "O=C(N/N=C/c1sc(=O)[nH]c1-[n+]1ccc2ccccc2c1)c1ccccc1[O-]", "Potency": "inactive"}, {"molecule": "CCCCCCn1c(CN2CCC(C)CC2)nc2c1c(=O)n(C)c(=O)n2C", "Potency": "inconclusive [inhibitor, single point]"}, {"molecule": "Cc1noc(C)c1S(=O)(=O)N1CCC(C(=O)N2CCN(c3ccccc3Cl)CC2)CC1", "Potency": "inconclusive [inhibitor, single point]"}, {"molecule": "COc1cc(=O)n2c(c1C(=O)NC(C)c1ccco1)CCN(Cc1ccnc3ccccc13)CC2", "note": "(configuration not stated)", "Potency": "inconclusive [inhibitor, single point]"}, {"molecule": "CCC(=O)Oc1ccc(C2N(C(=O)CC)CCN2S(=O)(=O)c2ccc(C)cc2)cc1OC", "note": "(configuration not stated)", "Potency": "inactive"}]}]}
